The results in this text go back to article PMC3040265 (Biochimica et biophysica acta, 2010).

Series [1] concerns the target (wild type) ferritin heavy chain (human, UniProt P02794). The series can be described thus: native gel or EMSA. Background: A gel shift assay detects complexes by their altered migration in electrophoresis.
Series [2] deals with the molecule itself. The series can be described thus: native gel or EMSA.

Sequence of UniProt P02794 (P02794 whole entry): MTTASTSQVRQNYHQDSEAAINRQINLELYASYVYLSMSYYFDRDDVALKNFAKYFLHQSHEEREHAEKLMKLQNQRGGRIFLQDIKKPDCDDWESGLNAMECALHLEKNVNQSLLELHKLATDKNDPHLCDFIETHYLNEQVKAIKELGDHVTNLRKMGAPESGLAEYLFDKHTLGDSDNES

B1: wild type ferritin light chain (natural protein)
chain: not shown
Take B1: the binding result in series [1] and in series [2] was “binds” each time.
